Read counts are not given, so values of variants with three or more changes are uncertain.

Results on 19 variants are retold here after the RNAGym collection of RNA variant scans (doi:10.7554/elife.90254).

B1: LINE1-full (parent)
chain: UACGUAGGUGGUUUUCCCCUGAUAGUGCUAAGGGGGCCUGGAAGUUUGGACUGGGCAGAGCUCAACACAGCGUGGCAAAGUGGCUGUGGCUAGACUGCCUCUCUGGAUUCCUCGUCACUCAGCAGGGCAUCUCUGAGAGAAAUGCC

The variants in the data set derive from B1. Briefly: self-cleavage, relative activity (ratio to wild type); higher = more cleavage; in vitro, sequencing; the parent is a self-cleaving ribozyme.
In the case of UACGUUGGUGGUCUUCCCCUGAUAGUGCUAAGGGGGCCUGGAAGUUUGGACUGGGCAGAGCUCAACACAGCGUGGCAAAGUGGCUGUGGCUAGACUGCCUCUCUGGAUUCCUCGUCACUCAGCAGGGCAUCUCUGAGGGAAAUGCC, the self-cleavage is 0.52.

For UACGUGGGUGGUUUUCCCCUGAUAGUGCUAAGGGGGCCUGGAAGUUUGGACUGGGCAGAGCUCAACACAGCGUGGCAAAGUGGCUGUGGCUAGACUGCCUCUCUGGAUUCCUCGACACUCAGCAGGGCAUCUCCGAGAGAAAUGCC, the self-cleavage stood at 0.

Turning to UACGUUGGUGGGUUUCCCCUGAUAGAGCUAAGGGGGCCUGGAAGUUUGGACUGGGCAGAGCUCAACACAGCGUGGCAAAGUGGCUGUGGCUAGACUGCCCCUCUGGAUUCCUCGUCACUCUGCAGGGCAUCUCUGAGAGAAAUGCC, the self-cleavage stood at 0.98.

As for UACGUGGGUGGUUUUCCCCUGAUAGUGCUAAGGGGGCCUGGAAGUUUGGACUGGGCAGAGCUCAACACAGCGUGGCAAAGUGGCUGUGGCUAGACUGCCUCUCAGGAUUCCUCGUCACUCAGCAGGGCAUCUCUGAGGGAAAUGCC, the self-cleavage stood at 0.67.

For the variant UACGUGGGUGGUUUUCCCCUGAUAGUGCUAAGGGGGCCUGGAAGUUUGGACUGGGCAGAGCUCAACACAGCGUGGCAAAGUGGCUGUGGCUAGACUGCCUCCCUGGGUUCCUCGUCACUCAGCAGGGCAUCUCUGAGAGAAAUGCC, the self-cleavage stood at 0.

Turning to UACGUUGGUGGUUUUCCCCUGAUAGUGCUAAGGGGGCCUGUAAGUUUGGACUGGGCAGAGCUCAACACAGCGUGGCAAAGUGGCUGUGGCUAGACUGCCUCUCUGGACUCCUCGUCACUCAGCAGGGCAUCUCUGAGAGAAAUGCC, the self-cleavage is 1.39.

With UACGUUGGUGGUUUUCCCCUGAUAGUGCUAAGGGGGCCUGGAAGUUUGGACUGGGCAGAGCUCAACACAGCGUGGCAUAGUGGCUGUGGCUAGACUGCCUCUCCGGAUUCCUCGUCACUCAGCAGGGCAUCUCUGAGAGAAAUGCC, the self-cleavage turned out to be 2.36.

On to UACGUUGGUGGUUUUCCCCUGAUAGUGCUAAGGGGGCCUGGAAGUUUGGACUGGGCAGAGCUCUACACAGCGUGGCGAAGUGGCUGUGGCUAGACUGCCUCUCUGGAUUCCUCGUCACUCAGCAGGGCAUCUCUGAGAGAAAUGCC, for which the self-cleavage was determined as 0.22.

UACGUUGGUGGUUUUCCCCUGGUAGCGCUAAGGGGGCCUGGAAGUUCGGACUGGGCAGAGCUCAACACAGCGUGGCAAAGUGGCUGUGACUAGACUGCCUCUCUGGAUUCCUCGUCACUCAGCAGGGCAUCUCUGAGGGAAAUGCC: the self-cleavage was 0.28.

For the variant UACGUUGGUGGUUUUCCCCUGAUAGUGCUAAGGGGGCCUGGAUGUUUGGACUGGGCAGAGCUCAACACAGCGUGGCAAAGUGGCUGUGGCUAGACUGCCUCUCUGGAUUCCUCGUCACUCAGCAGGGCAUCUCUGAGAGAAGUGCC, the self-cleavage is 1.12.

As for UACGUGGGUGGUUUUCCCCUGAUAGUGCUAAGGGGGCCUGGAAGUUUGGACUGGGCAGAGCUCAACACAGCGUGGCAAAGUGGCUGUGGCUAGACUGCCUCUCUGGAUUCCUCGCCCCUCAGCAGGGCAUCUCUGAGAGAAAUGCC, the self-cleavage was determined as 0.

With UACGUGGGUGGUUUUCCCCUGAUAGUGCUAAGGGGGCCUGGAAGUUUGGACUGGGCAGAGCUCAACACAGCGUGGCAAAGUGGCUGAGGCUAGACCGCCUCUCUGGAUUCCUCGUCACUCAGCAGGGCAUCUCUGAGAGAAAUGCC, the self-cleavage was found to be 0.12.

As to UACGUUGGUGGUUUUCCCCUGAUAGUGCUAUGGGGGCCUGGAAGUUUGGACUGGGCAGGGCUCAACACAGCGUGGCAAAGUGGCUGUGGCUAGACUGCCUCUCUGGAUUCCUCGUCACUCAGCAGGGCAUCUCUGAGAGAGAUGCC, the self-cleavage amounted to 0.33.

Regarding UACGUUGGUGGUUUUCCCCUGAUAGUGCUAAGAGGGCCUGGAAGUUUGGACUGGGCAGAGCUCAACACAGCGCGGCAAAGUGGCUGUGGCUAGACUGCCUCUCUGGAUUCCUCGUCACUCAGCAGGGCAUCUCUGAGAGAAAUGCC, the self-cleavage stood at 0.91.

On to UACGUUGGUGGCUUUCCCCUGAUAGUGCUAAGGGGGCCUGGAAGUUUGGACUGGGCAGAGCUCAACCCAGCGUGGCAAAGUGGCUGUGGCUAGACAGCCUCUCUGGAUUCCUCGUCACUCAGCAGGGCAUCUCUGAGGGAAAUGCC, for which the self-cleavage worked out at 0.33.

Consider UACGUUGGUGGUUUUCCCCUGAUAGUGCUAAGGGGGCCUGGAAGUUUGGACUGGGCAGAGCUCUACACAGCGUGGCAAAGUGGCUGUGGCUAGACCGCCUCUCUGGAUUCCUCGUCACUCAGCAGGGCACCUCUGAGGGAAAUGCC, for which the self-cleavage was determined as 0.18.

In the case of UACGUGGGUGGUUUUCCCCUGAUAGUGCUAAGGGGGCCUGGAAGUUUGGACUGGGCAGAGCUCAACACAGCGUGGCAAAGUGGCUGUGGCUAGACUGCCUCUCUGGAUUCCACGUCACUCAGCAGGGCAUCUCUGAGAGAAGUGCC, the self-cleavage came to 1.41.

Regarding UACGUGGGUGGUUUUCCCCUGAUAGUGCUAAGGGGGCCUGGAAGUUUGGACUGGGCAGAGCUCAACACAGCGUGGCAAAGUGGCUGUGGCUAGACUGCCUCUCAGGAUUCCUCGUCACUCGGCAGGGCAUCUCUGAGAGAAAUGCC, the self-cleavage came out at 1.33.

UACGUGGGUGGUUUUCCCCUGAUAGUGCUAAGGGGGCCUGGAAGUUUGGACUGGGCAGAGCUCAACACAGCGUGGCAAAGUGGCUGUGGCUAGACUGCCUCUCUGGAUUCCUCGACACUCAGCAGGGCAUCUCUGGGAGAAAUGCC: the self-cleavage was determined as 1.8.
